# The campaign covered roughly 340,000 compounds. About 1,000 (0.29%) were called active. This list was built around the results that the source calls inconclusive (neither active nor inactive); the mix of calls is not that of the screen.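 The calls were made as follows: active = mean replicate activation score at least 90 and every replicate individually at or above 90; inconclusive = only one of the two criteria met; inactive = neither criterion met.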
# Assay: miR-122 Renilla sensor signal increase in Huh7, primary screen, miR-122 inhibitor project, cell-based, single point, plate reader (AID 602342);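 also: higher luciferase means less miR-122 activity so hits act as miR-122 inhibitors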
# Conditions: Huh7 miR-122 Renilla luciferase sensor, 48 h, stronger effect = higher value, neutral wells = 0, positive control = 100; at 12.5 µM unless noted
row,SMILES,activation (reporter increase)
1,C[C@H](CO)N1C[C@H](C)[C@@H](CN(C)Cc2ccc3c(c2)OCO3)Oc2c(NC(=O)C3CCOCC3)cccc2C1=O,active: 319% [at 16.7 µM]
2,CC(C)C(=O)Nc1ccc2c(c1)C(=O)N(C)[C@H]1CC[C@H](CC(=O)NCc3cccc(F)c3)O[C@H]1CO2,inconclusive: 440% [at 16.7 µM]
3,CC(=O)N1c2ccc(S(=O)(=O)NCCc3ccccc3)cc2CC1C (configuration not stated),active: 153%
4,O=S(=O)(Nc1cccc(-c2cn3ccsc3n2)c1)c1ccc(F)cc1,inconclusive: 94.1%
5,COc1ccc(NS(=O)(=O)c2cc(NC(=O)c3ccc(=O)[nH]n3)ccc2C)cc1,active: 166%
6,O=C(/C=C/c1ccccc1)Nc1cccc(C(=O)N2CCCC2)c1,inactive: -4.3%
7,O=C(c1cccc(F)c1)N1C[C@H]2[C@@H](c3ccccc31)[C@@H](CO)N2C(=O)c1ccc(F)cc1,active: 192% [at 16.7 µM]
8,CCOC1=C2[C@H](c3cccc(Cl)c3)N(S(=O)(=O)c3ccc(C)cc3)C[C@H]2n2c(=O)n(-c3ccccc3)c(=O)n2C1,inconclusive: 90.4%
9,CCOc1ccccc1NC(=O)Cn1nnc(C(=O)NCc2cccs2)c1N,inconclusive: 94.8%
10,C[C@H](CO)N1C[C@H](C)[C@H](CN(C)Cc2ccc(C(=O)Nc3ccccc3N)cc2)Oc2ccc(N(C)C)cc2C1=O,inconclusive: 99.3% [at 16.7 µM]
11,CN(Cc1ccccc1)S(=O)(=O)c1ccc(NC(=S)NC(=O)C2CCCC2)cc1,active: 124%
12,Cc1ccc(N(C)S(=O)(=O)c2ccc(-c3cc(C)no3)s2)cc1,inactive: 80.8%
13,CC(C)(CNC(=S)NCCc1ccccc1)CNC(=S)NCCc1ccccc1,active: 280%
14,C[C@@H]1CCCCO[C@@H](CN(C)S(=O)(=O)c2ccccc2)[C@@H](C)CN([C@@H](C)CO)C(=O)c2cc(NC(=O)C3CCCCC3)ccc2O1,inactive: -6.62% [at 16.7 µM]
15,CC(=O)Nc1ccc(S(=O)(=O)C(C#N)c2nc3ccccc3nc2NCCO)cc1 (configuration not stated),inconclusive: 94.8%
16,Cc1ccc(C)c(S(=O)(=O)NCCCc2ccccc2)c1,inconclusive: 92.7%
17,COCCCNC(=O)Cc1c(C)c2c(cc(C)c3c(C(C)(C)C)coc32)oc1=O,active: 90.2%
18,O=S(=O)(NC1CCCCC1)c1ccc(-c2csnn2)s1,inconclusive: 95.1%
19,Cc1ccc(NC(=O)COC(=O)c2cccnc2Cl)cc1S(=O)(=O)N1CCOCC1,inactive: 9.99%

row,SMILES,activation (reporter increase)
1,COc1ccc(/C=C/C(=O)Nc2cc(C)nn2-c2nc3ccccc3n2Cc2cccc([N+](=O)[O-])c2)cc1,inconclusive: 112%
2,CNC(=O)C[C@@H]1CC[C@H]2[C@H](COc3ccc(NC(=O)c4cccc(OC)c4)cc3C(=O)N2C)O1,inactive: -50% [at 16.7 µM]
3,CCCCNS(=O)(=O)c1ccc2nc(-c3cccnc3)cc(C(=O)NCCOC)c2c1,inconclusive: 93.7%
4,C[C@H](CO)N1C[C@H](C)[C@H](CN(C)Cc2ccc(C(=O)Nc3ccccc3N)cc2)Oc2ccc(NC(=O)Nc3ccc4c(c3)OCO4)cc2CC1=O,inconclusive: 97.4% [at 16.7 µM]
5,CC(C)CNS(=O)(=O)c1ccc(CCC(=O)NCCC2=CCCCC2)cc1,inconclusive: 94.4%
6,CCNC(=O)Nc1ccc2c(c1)C(=O)N(C)[C@H]1CC[C@H](CC(=O)NCc3ccc(F)cc3)O[C@H]1CO2,inactive: 3.15% [at 16.7 µM]
7,O=S(=O)(N/N=C\c1cccn1-c1ccccc1)c1ccc2ccccc2c1,inconclusive: 97.9%
8,CC(C)Oc1ccc(C(=O)Nc2ccc(Cl)c(S(=O)(=O)Nc3ccc(Cl)cc3)c2)cc1,inconclusive: 105%
9,CCC(C)[C@H](NC(=O)NC1CC1)C(=O)O (some centres not stated),inactive: 1.75%
10,Cc1ccc(NS(=O)(=O)c2cc3c4c(c2)CC(=O)N4CCC3)cc1C,inconclusive: 91.1%
11,CCOC(=O)c1ccc(NS(=O)(=O)c2ccc3[nH]c(=O)[nH]c3c2)cc1,inconclusive: 97%
12,CC(C)CNS(=O)(=O)c1ccc2c(c1)OCCO2,inconclusive: 91.2%
13,Cc1ccc(S(=O)(=O)Nc2ccc3ccccc3c2)cc1,active: 118%
14,COc1ccc(-c2cc(C(=O)N(C)Cc3ccccc3F)c3ccccc3n2)cc1OC,inconclusive: 92.1%
15,C[C@H](CO)N1C[C@H](C)[C@H](CN(C)C(=O)c2ccccn2)Oc2cc(C#Cc3ccccc3)ccc2S1(=O)=O,inactive: 4.86% [at 16.7 µM]
16,CCOc1ccc(S(=O)(=O)Nc2ccc3c(c2)OCO3)c2cccnc12,inconclusive: 91.2%
17,CCOc1ccc(S(=O)(=O)Nc2cccc(Cl)c2)cc1,inconclusive: 90.2%
18,CO[C@H]1CN(C)C(=O)c2cc(NS(C)(=O)=O)ccc2OC[C@H](C)N(Cc2ccccc2)C[C@H]1C,inactive: -11.5% [at 16.7 µM]
